The source of these data is paper PMC6759578.

Chains of the proteins cited; added tags and fusions are not shown.
UniProt Q7Z434: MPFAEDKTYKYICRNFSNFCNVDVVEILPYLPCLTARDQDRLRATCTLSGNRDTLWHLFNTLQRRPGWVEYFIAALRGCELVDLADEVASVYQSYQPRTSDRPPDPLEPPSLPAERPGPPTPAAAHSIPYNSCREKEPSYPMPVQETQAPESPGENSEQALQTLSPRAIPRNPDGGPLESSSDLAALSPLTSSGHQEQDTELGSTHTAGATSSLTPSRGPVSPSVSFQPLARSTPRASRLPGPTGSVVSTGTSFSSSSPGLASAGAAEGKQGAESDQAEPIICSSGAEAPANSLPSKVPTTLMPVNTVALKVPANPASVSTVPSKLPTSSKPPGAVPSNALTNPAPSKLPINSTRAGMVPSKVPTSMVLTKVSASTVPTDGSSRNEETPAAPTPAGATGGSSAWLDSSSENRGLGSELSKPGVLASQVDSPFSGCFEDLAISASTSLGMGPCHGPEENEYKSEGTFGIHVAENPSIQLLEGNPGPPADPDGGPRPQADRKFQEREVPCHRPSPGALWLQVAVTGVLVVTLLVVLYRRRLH
UniProt Q8IUC6: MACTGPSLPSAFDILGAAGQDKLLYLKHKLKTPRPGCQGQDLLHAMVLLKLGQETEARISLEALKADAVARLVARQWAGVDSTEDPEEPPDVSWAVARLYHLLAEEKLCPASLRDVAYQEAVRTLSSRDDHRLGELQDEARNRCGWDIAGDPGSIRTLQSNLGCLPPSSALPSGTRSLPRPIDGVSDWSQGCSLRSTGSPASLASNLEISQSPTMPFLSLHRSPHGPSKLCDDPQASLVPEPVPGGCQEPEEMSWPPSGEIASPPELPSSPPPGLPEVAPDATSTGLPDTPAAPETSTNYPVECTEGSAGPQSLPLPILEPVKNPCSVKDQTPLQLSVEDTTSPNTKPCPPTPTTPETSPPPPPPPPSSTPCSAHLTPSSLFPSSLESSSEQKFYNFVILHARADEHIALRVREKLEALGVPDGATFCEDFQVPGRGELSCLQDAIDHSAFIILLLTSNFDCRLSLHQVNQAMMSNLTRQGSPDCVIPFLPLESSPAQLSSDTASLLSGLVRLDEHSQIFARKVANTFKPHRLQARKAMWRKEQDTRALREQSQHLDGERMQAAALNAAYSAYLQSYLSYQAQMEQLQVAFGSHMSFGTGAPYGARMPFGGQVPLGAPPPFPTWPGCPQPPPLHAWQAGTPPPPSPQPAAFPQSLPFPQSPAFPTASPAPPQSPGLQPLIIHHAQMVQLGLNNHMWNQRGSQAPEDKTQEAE

Assay [1] has as its target FLAG-MAVS (UniProt Q7Z434). The experiment in a line: co-IP; HEK293T cells co-transfected with HA-DDX23 (full size or truncations) and FLAG-tagged adaptor; IP lysis buffer (50 mM Tris pH 7.4, 150 mM NaCl, 1% NP-40, 0.5% deoxycholate); precipitated with anti-FLAG beads, blotted with anti-HA.
Assay [2] addresses FLAG-TRIF (UniProt Q8IUC6). The assay is described as above.
Assay [3] deals with FLAG-STING, Q86WV6. The description is as above. As to conditions: remark: other sources report otherwise.
In assay [4] the target is FLAG-tagged TRIF (expressed in A549 cells) (UniProt Q8IUC6). The experiment in a line: co-IP; A549 cells transfected with FLAG-tagged TRIF for 24 h, with or without poly(I:C) stimulation; anti-FLAG and Protein G beads; blotted with DDX23 and MAVS antibodies.

These are yes or no findings as the source states them, for the method shown. Binding seen in cells or lysates may run through a third protein. Some entries that bind do so weakly or less than the wild type. For some of these results: Where a sequence is shown, tags or fusion partners need not be part of it.

B1: HA-DDX23 (human DDX23, full size) (protein, UniProt Q9BUQ8 1-820)
chain: MAGELADKKDRDASPSKEERKRSRTPDRERDRDRDRKSSPSKDRKRHRSRDRRRGGSRSRSRSRSKSAERERRHKERERDKERDRNKKDRDRDKDGHRRDKDRKRSSLSPGRGKDFKSRKDRDSKKDEEDEHGDKKPKAQPLSLEELLAKKKAEEEAEAKPKFLSKAEREAEALKRRQQEVEERQRMLEEERKKRKQFQDLGRKMLEDPQERERRERRERMERETNGNEDEEGRQKIREEKDKSKELHAIKERYLGGIKKRRRTRHLNDRKFVFEWDASEDTSIDYNPLYKERHQVQLLGRGFIAGIDLKQQKREQSRFYGDLMEKRRTLEEKEQEEARLRKLRKKEAKQRWDDRHWSQKKLDEMTDRDWRIFREDYSITTKGGKIPNPIRSWKDSSLPPHILEVIDKCGYKEPTPIQRQAIPIGLQNRDIIGVAETGSGKTAAFLIPLLVWITTLPKIDRIEESDQGPYAIILAPTRELAQQIEEETIKFGKPLGIRTVAVIGGISREDQGFRLRMGCEIVIATPGRLIDVLENRYLVLSRCTYVVLDEADRMIDMGFEPDVQKILEHMPVSNQKPDTDEAEDPEKMLANFESGKHKYRQTVMFTATMPPAVERLARSYLRRPAVVYIGSAGKPHERVEQKVFLMSESEKRKKLLAILEQGFDPPIIIFVNQKKGCDVLAKSLEKMGYNACTLHGGKGQEQREFALSNLKAGAKDILVATDVAGRGIDIQDVSMVVNYDMAKNIEDYIHRIGRTGRAGKSGVAITFLTKEDSAVFYELKQAILESPVSSCPPELANHPDAQHKPGTILTKKRREETIFA
Consider B1, for which the binding result in assay [1] and in assay [2] was “binds” each time.

B2: HA-DDX23 (human DDX23, full size), Q9BUQ8 1-820 (protein)
chain: MAGELADKKDRDASPSKEERKRSRTPDRERDRDRDRKSSPSKDRKRHRSRDRRRGGSRSRSRSRSKSAERERRHKERERDKERDRNKKDRDRDKDGHRRDKDRKRSSLSPGRGKDFKSRKDRDSKKDEEDEHGDKKPKAQPLSLEELLAKKKAEEEAEAKPKFLSKAEREAEALKRRQQEVEERQRMLEEERKKRKQFQDLGRKMLEDPQERERRERRERMERETNGNEDEEGRQKIREEKDKSKELHAIKERYLGGIKKRRRTRHLNDRKFVFEWDASEDTSIDYNPLYKERHQVQLLGRGFIAGIDLKQQKREQSRFYGDLMEKRRTLEEKEQEEARLRKLRKKEAKQRWDDRHWSQKKLDEMTDRDWRIFREDYSITTKGGKIPNPIRSWKDSSLPPHILEVIDKCGYKEPTPIQRQAIPIGLQNRDIIGVAETGSGKTAAFLIPLLVWITTLPKIDRIEESDQGPYAIILAPTRELAQQIEEETIKFGKPLGIRTVAVIGGISREDQGFRLRMGCEIVIATPGRLIDVLENRYLVLSRCTYVVLDEADRMIDMGFEPDVQKILEHMPVSNQKPDTDEAEDPEKMLANFESGKHKYRQTVMFTATMPPAVERLARSYLRRPAVVYIGSAGKPHERVEQKVFLMSESEKRKKLLAILEQGFDPPIIIFVNQKKGCDVLAKSLEKMGYNACTLHGGKGQEQREFALSNLKAGAKDILVATDVAGRGIDIQDVSMVVNYDMAKNIEDYIHRIGRTGRAGKSGVAITFLTKEDSAVFYELKQAILESPVSSCPPELANHPDAQHKPGTILTKKRREETIFA
For the molecule B2, the binding entry in assay [3] is “no binding”.

B3: endogenous DDX23 (protein, UniProt Q9BUQ8 1-820)
chain: MAGELADKKDRDASPSKEERKRSRTPDRERDRDRDRKSSPSKDRKRHRSRDRRRGGSRSRSRSRSKSAERERRHKERERDKERDRNKKDRDRDKDGHRRDKDRKRSSLSPGRGKDFKSRKDRDSKKDEEDEHGDKKPKAQPLSLEELLAKKKAEEEAEAKPKFLSKAEREAEALKRRQQEVEERQRMLEEERKKRKQFQDLGRKMLEDPQERERRERRERMERETNGNEDEEGRQKIREEKDKSKELHAIKERYLGGIKKRRRTRHLNDRKFVFEWDASEDTSIDYNPLYKERHQVQLLGRGFIAGIDLKQQKREQSRFYGDLMEKRRTLEEKEQEEARLRKLRKKEAKQRWDDRHWSQKKLDEMTDRDWRIFREDYSITTKGGKIPNPIRSWKDSSLPPHILEVIDKCGYKEPTPIQRQAIPIGLQNRDIIGVAETGSGKTAAFLIPLLVWITTLPKIDRIEESDQGPYAIILAPTRELAQQIEEETIKFGKPLGIRTVAVIGGISREDQGFRLRMGCEIVIATPGRLIDVLENRYLVLSRCTYVVLDEADRMIDMGFEPDVQKILEHMPVSNQKPDTDEAEDPEKMLANFESGKHKYRQTVMFTATMPPAVERLARSYLRRPAVVYIGSAGKPHERVEQKVFLMSESEKRKKLLAILEQGFDPPIIIFVNQKKGCDVLAKSLEKMGYNACTLHGGKGQEQREFALSNLKAGAKDILVATDVAGRGIDIQDVSMVVNYDMAKNIEDYIHRIGRTGRAGKSGVAITFLTKEDSAVFYELKQAILESPVSSCPPELANHPDAQHKPGTILTKKRREETIFA
With B3, the binding result in assay [4] was “binds”.
